About 14,000 (4.5%) of roughly 310,000 compounds showed an effect of 50% or more. The effect is printed as a negative number. This is one part of the list.
What follows are compounds tested against human ether-à-go-go-related gene (hERG) potassium channel (human, UniProt Q12809) (assay: primary screen, population patch clamp on CHO cells stably expressing hERG).
human ether-à-go-go-related gene (hERG) potassium channel, sequence (Q12809 whole entry, looked up): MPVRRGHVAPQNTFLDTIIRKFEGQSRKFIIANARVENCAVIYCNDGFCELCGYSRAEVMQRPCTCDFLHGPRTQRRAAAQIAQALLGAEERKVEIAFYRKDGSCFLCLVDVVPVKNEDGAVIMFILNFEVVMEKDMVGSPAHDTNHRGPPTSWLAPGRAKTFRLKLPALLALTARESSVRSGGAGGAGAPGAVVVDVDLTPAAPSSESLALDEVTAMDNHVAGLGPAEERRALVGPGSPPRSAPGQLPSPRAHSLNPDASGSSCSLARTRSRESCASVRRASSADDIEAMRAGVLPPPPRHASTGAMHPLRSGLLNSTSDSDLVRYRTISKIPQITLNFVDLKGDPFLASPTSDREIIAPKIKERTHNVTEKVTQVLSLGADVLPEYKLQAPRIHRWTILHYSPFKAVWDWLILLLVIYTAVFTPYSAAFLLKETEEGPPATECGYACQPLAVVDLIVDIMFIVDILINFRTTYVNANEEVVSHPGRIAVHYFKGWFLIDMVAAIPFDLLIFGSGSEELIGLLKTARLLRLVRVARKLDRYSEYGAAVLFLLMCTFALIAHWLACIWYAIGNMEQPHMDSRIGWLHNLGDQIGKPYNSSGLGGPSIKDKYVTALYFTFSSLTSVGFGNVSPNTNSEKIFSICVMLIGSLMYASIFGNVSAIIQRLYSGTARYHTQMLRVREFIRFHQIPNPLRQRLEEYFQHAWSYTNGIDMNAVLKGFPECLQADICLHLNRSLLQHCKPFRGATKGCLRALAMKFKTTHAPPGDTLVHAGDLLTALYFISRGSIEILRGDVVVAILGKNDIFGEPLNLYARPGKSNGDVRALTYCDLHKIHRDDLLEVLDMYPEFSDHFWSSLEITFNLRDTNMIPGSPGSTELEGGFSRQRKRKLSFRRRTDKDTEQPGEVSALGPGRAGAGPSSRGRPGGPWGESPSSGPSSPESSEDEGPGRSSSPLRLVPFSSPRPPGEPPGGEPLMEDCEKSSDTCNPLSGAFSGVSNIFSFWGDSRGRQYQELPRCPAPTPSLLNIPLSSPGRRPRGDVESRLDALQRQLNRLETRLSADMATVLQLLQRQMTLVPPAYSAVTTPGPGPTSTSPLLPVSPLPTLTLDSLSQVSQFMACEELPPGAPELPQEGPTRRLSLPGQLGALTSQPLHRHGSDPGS
In the case of `CCOC(=O)C1CCN(C(=O)CN(c2ccc(OC)cc2)S(=O)(=O)c2c(C)noc2C)CC1`, the “hERG current change (%, negative = inhibition) at 10uM” value is reported as -21.2%.
`CCc1nc(N)c(C#N)c(-c2ccncc2)c1C` was tested, and the “hERG current change (%, negative = inhibition) at 10uM” value was 0.543%.
For `CCOC(=O)c1ccc(NC(=O)CNC(=O)c2ccccc2)cc1`, the “hERG current change (%, negative = inhibition) at 10uM” value was 2.53%.
For `Cc1cc(N/N=C/c2c[nH]c3ccccc23)c2ccccc2n1`, the “hERG current change (%, negative = inhibition) at 10uM” value was 14.2%.
`O=C(NC1CCCCC1)c1cc([N+](=O)[O-])[nH]n1` was tested, and the “hERG current change (%, negative = inhibition) at 10uM” value was -21.2%.
In the case of `CCOC(=O)C1=C(C)NC(C)=C(C(=O)OCC)C1c1ccc(C)o1`, the “hERG current change (%, negative = inhibition) at 10uM” value is reported as -5.8%.
For `COc1ccc(NC(=O)N2CCN(C(=O)C(Cc3ccc(F)cc3)NC(C)=O)CC2)cc1` (stereo not shown), the “hERG current change (%, negative = inhibition) at 10uM” value was -9.37%.
For `CCOC(=O)CCC(NC(=O)CC(=O)NC(CCC(=O)OCC)C(=O)OCC)C(=O)OCC` (stereo not shown), the “hERG current change (%, negative = inhibition) at 10uM” value was 17.3%.
For `Cc1nc2c(cnn2-c2ccccc2)c(=O)[nH]1`, the “hERG current change (%, negative = inhibition) at 10uM” value was 28.7%.
With `CCc1ccc(-c2cc(C)no2)cc1S(=O)(=O)N1CCOc2ccccc21` the “hERG current change (%, negative = inhibition) at 10uM” value was -6.97%.
For `N=c1c(S(=O)(=O)c2ccc(Br)cc2)cc2c(=O)n3ccccc3nc2n1Cc1ccco1`, the “hERG current change (%, negative = inhibition) at 10uM” value was 7.31%.
In the case of `O=[N+]([O-])c1ccc(O)c(-c2cc(C(F)(F)F)nc(-c3ccccc3)n2)c1`, the “hERG current change (%, negative = inhibition) at 10uM” value is reported as 15.5%.
For `O=C(NCCc1ccccc1)C(=O)NCC1OCCN1S(=O)(=O)c1ccc(Br)cc1` (stereo not shown), the “hERG current change (%, negative = inhibition) at 10uM” value was 0.157%.
For `O=C(Nc1ccc(NC(=O)c2cccs2)cc1)c1ccc2c(c1)OCCO2`, the “hERG current change (%, negative = inhibition) at 10uM” value was 15.6%.
With `COC(=O)C(C(=O)OC)C(C)C(C(=O)OC)C(=O)OC` the “hERG current change (%, negative = inhibition) at 10uM” value was 9.86%.
In the case of `CC(C)Oc1cccc(C(=O)NC(=S)NCc2cccnc2)c1`, the “hERG current change (%, negative = inhibition) at 10uM” value is reported as -28%.
With `Cc1nn2c(NCCOCCO)c3c(nc2c1-c1ccccc1)CCC3` the “hERG current change (%, negative = inhibition) at 10uM” value was -50.2%.
`Cc1cc(C)c(OCC(=O)NCC(C)(C)N2CCOCC2)c(C)c1` was tested, and the “hERG current change (%, negative = inhibition) at 10uM” value was -32.7%.
With `CNC(=O)CN(c1cccc(Br)c1)S(C)(=O)=O` the “hERG current change (%, negative = inhibition) at 10uM” value was -11.4%.
For `COc1ccc(NCc2nnc(SCC(=O)N3CCCc4ccccc43)n2C)cc1`, the “hERG current change (%, negative = inhibition) at 10uM” value was -20.8%.
For `CCOc1cc(C(=O)NC(=S)Nn2cnnc2)cc(OCC)c1OCC`, the “hERG current change (%, negative = inhibition) at 10uM” value was 17.2%.
`S=C1NCN(Cc2cccnc2)CN1Cc1ccccc1` was tested, and the “hERG current change (%, negative = inhibition) at 10uM” value was 22.8%.
In the case of `O=S(=O)(c1ccc(F)cc1)N1CCN(C(=S)NCC2CCCO2)CC1` (stereo not shown), the “hERG current change (%, negative = inhibition) at 10uM” value is reported as -30.8%.
For `COc1ccc(/C=N/NC(=O)c2sc3nc(C)cc(C)c3c2N)cc1`, the “hERG current change (%, negative = inhibition) at 10uM” value was 16.4%.
In the case of `COc1ccc(-c2csc(NCCc3nc4cc(C(=O)NCCCO)ccc4n3Cc3ccc(C)cc3)n2)cc1`, the “hERG current change (%, negative = inhibition) at 10uM” value is reported as 7.19%.
For `N#CCSc1nnc2ccc3ccccc3n12`, the “hERG current change (%, negative = inhibition) at 10uM” value was 2.46%.
With `Cl.N=C(N)SCc1ccccc1Cl` the “hERG current change (%, negative = inhibition) at 10uM” value was 31%.
In the case of `CCOc1ccc2cc(S(=O)(=O)n3ccnc3C)ccc2c1`, the “hERG current change (%, negative = inhibition) at 10uM” value is reported as 10.1%.
`O=C(NCC(=O)N(c1ccccc1)C(C(=O)NC1CCCC1)c1cccnc1)c1cccs1` (stereo not shown) was tested, and the “hERG current change (%, negative = inhibition) at 10uM” value was 7.61%.
With `CC1(C)CN(c2ccccc2)N(C(=O)c2ccc(F)cc2)C1=O` the “hERG current change (%, negative = inhibition) at 10uM” value was -1.02%.
With `Cc1cccc(S(=O)(=O)CC(=O)Nc2nc(-c3ccccc3)cs2)c1` the “hERG current change (%, negative = inhibition) at 10uM” value was -13.8%.
`CCC1CCCCN1C(=O)c1cccc(S(=O)(=O)Nc2cc(C(F)(F)F)ccc2Cl)c1` (stereo not shown) was tested, and the “hERG current change (%, negative = inhibition) at 10uM” value was 2.59%.
In the case of `CC(OC(=O)c1ccccc1NCCO)C(=O)NCC(=O)Nc1ccc(F)c(F)c1F` (stereo not shown), the “hERG current change (%, negative = inhibition) at 10uM” value is reported as 8.89%.
In the case of `COc1ccc(Cl)cc1NC(=O)COc1cccc(-n2cnnn2)c1`, the “hERG current change (%, negative = inhibition) at 10uM” value is reported as 10.3%.
`CCC(CC)C(=O)NC12CC3CC(CC(C3)C1)C2` was tested, and the “hERG current change (%, negative = inhibition) at 10uM” value was 5.15%.
With `CS(=O)(=O)c1ccc2nc(NC(=O)CN3CCN(Cc4ccccc4)CC3)sc2c1` the “hERG current change (%, negative = inhibition) at 10uM” value was -39.8%.
`Fc1ccccc1-c1cc2ncccc2cn1` was tested, and the “hERG current change (%, negative = inhibition) at 10uM” value was 5.27%.
For `COc1cccc(C(=O)NC(c2ccccc2)C2CCCC2)c1` (stereo not shown), the “hERG current change (%, negative = inhibition) at 10uM” value was 6.54%.
With `NC(=O)C1CCN(Cc2nc3c(Br)cc(Br)cc3c(=O)[nH]2)CC1` the “hERG current change (%, negative = inhibition) at 10uM” value was -35.8%.
For `O=C(CCn1c(=O)sc2ccccc21)Nc1ccon1`, the “hERG current change (%, negative = inhibition) at 10uM” value was 1.91%.
For `Cc1ccc(C(=O)c2cnc3ccccc3c2-c2ccccc2)cc1`, the “hERG current change (%, negative = inhibition) at 10uM” value was -5.7%.
For `COc1ccc(Nc2nc(N)c3ccccc3n2)c(OC)c1.Cl`, the “hERG current change (%, negative = inhibition) at 10uM” value was -14.9%.
For `CCn1nnc2cc(C(=O)Nc3cc(S(C)(=O)=O)ccc3Cl)ccc21`, the “hERG current change (%, negative = inhibition) at 10uM” value was -3.2%.

Reference: PMC4336329 (PLoS ONE, 2015)
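Also: peak tail current of the secondary pulse compared with the same well before compound.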
